# Experimental data: the supplement of paper PMC4166925
# ± gives the standard deviation of the averaged measurements. Over roughly 33,000 sequences, “E-score (dimensionless, -0.5 to 0.5)” has its median near -0.046; the highest 2% begin near 0.36. Some of the results follow.
# Tested on: T1, SpTbr T-box DNA-binding domain (GST fusion)
# T1 sequence: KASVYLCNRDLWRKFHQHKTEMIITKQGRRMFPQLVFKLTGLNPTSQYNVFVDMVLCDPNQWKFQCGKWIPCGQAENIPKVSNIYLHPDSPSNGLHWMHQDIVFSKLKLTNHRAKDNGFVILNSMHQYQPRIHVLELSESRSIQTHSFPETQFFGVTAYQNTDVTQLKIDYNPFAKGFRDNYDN
# Assay: PBM E-score of 8-mer (E-score (dimensionless, -0.5 to 0.5)); Tbr is Tbrain of the sea star Patiria miniata (Pm) or the sea urchin Strongylocentrotus purpuratus (Sp); higher = stronger binding preference; most listed sequences are background and not binding sites
# Conditions: the construct has about 5 more residues each side
# Outline: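 GST-fused Tbr T-box DNA-binding domains (the whole T-box plus about five flanking residues) were expressed in BL21 E. coli at 20 °C and purified by glutathione affinity chromatography. Universal Agilent oligonucleotide arrays were made double-stranded by primer extension, incubated with 200 nM protein in PBS (pH 7.5), then scanned and quantified. Every ungapped 8-mer was scored from probe intensities. The Universal PBM Analysis Suite gave each word an enrichment E-score, averaged over duplicate arrays.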
row,Sequence,PBM E-score of 8-mer
1,CCGCTAAA,0.173 ± 0.051
2,CCCAGCCC,-0.135 ± 0.03
3,AAGTATCG,0.159 ± 0.036
4,GGATCCAA,-0.213 ± 0.043
5,GGAACGTA,-0.249 ± 0.041
6,GCATTGCC,-0.0431 ± 0.042
7,CGCGGAAG,0.123 ± 0.016
8,AATAGTTC,-0.0653 ± 0.097
9,ACCGGTGC,-0.0976 ± 0.032
10,AATAACTC,-0.049 ± 0.03
11,GCATACAA,-0.184 ± 0.035
12,AACGGGAA,-0.0474 ± 0.074
13,ACGTGTAG,0.133 ± 0.068
14,ACCACGTG,0.207 ± 0.034
15,GCATCCCC,-0.113 ± 0.032
16,GGACTCTA,-0.305 ± 0.019
17,ACGGCGAG,-0.0397 ± 0.066
18,ATATCGGG,-0.131 ± 0.011
19,AATGAAGT,-0.051 ± 0.077
20,TCAAATGA,-0.203 ± 0.044
21,GAATAAAA,0.125 ± 0.014
22,CGTCGGTA,-0.0497 ± 0.012
23,AGTCACCC,0.017 ± 0.11
24,TCCTAAGA,-0.32 ± 0.018

row,Sequence,PBM E-score of 8-mer
1,GTTGTAAA,0.123 ± 0.071
2,ATATGATG,0.0387 ± 0.089
3,AGGGCAGC,0.0428 ± 0.043
4,AAACATGG,-0.191 ± 0.014
5,ATGCACAA,0.004 ± 0.018
6,ACCAGCGC,0.0491 ± 0.099
7,GCTTGATA,-0.109 ± 0.002
8,TGTGATAA,0.377 ± 0.017
9,AAGTGCAA,0.323 ± 0.016
10,TGATTCAA,-0.108 ± 0.02
11,CACATGGA,0.1438 ± 0.00043
12,ATGAATAC,-0.1758 ± 0.0014
13,TCGCCCAA,-0.0345 ± 0.031
14,CAACCGGG,-0.103 ± 0.0069
15,ACAATCGA,-0.0224 ± 0.028
16,ACGCGCGG,0.229 ± 0.028
17,CTCATAGA,-0.156 ± 0.053
18,TATACTGA,-0.214 ± 0.063
19,ACAAAGTG,0.171 ± 0.024
20,ATGAGGAC,-0.293 ± 0.013
21,GCCATCGC,0.0851 ± 0.058
22,AGATAATG,-0.132 ± 0.051
23,CGTTTGCC,-0.0967 ± 0.12
24,ATTATTAA,0.0186 ± 0.092

row,Sequence,PBM E-score of 8-mer
1,CACGCCGG,0.275 ± 0.04
2,TGAAAAAA,-0.0357 ± 0.0053
3,GCATCACC,0.301 ± 0.011
4,TTCCTAAA,-0.354 ± 0.036
5,GGTGACAA,0.459 ± 0.011
6,AGAAGTCC,0.026 ± 0.044
7,CTGAACGC,-0.0762 ± 0.037
8,CAATACGC,0.04 ± 0.079
9,CCGGCCGG,-0.268 ± 0.017
10,AGGTGAGG,0.4113 ± 0.0021
11,CCCGGCAA,0.0221 ± 0.067
12,GCCCTGCC,0.0738 ± 0.032
13,GCTTGCCA,0.152 ± 0.061
14,AGCGCGCT,-0.0253 ± 0.037
15,TCGGCGAA,0.00517 ± 0.1
16,AGGTATTA,0.00443 ± 0.062
17,ACTACTAG,-0.188 ± 0.057
18,CATAATCG,-0.137 ± 0.021
19,ATTAAGTC,-0.26 ± 0.038
20,CTACCGCA,0.0485 ± 0.0024
21,AAGAGGTG,0.407 ± 0.0088
22,ACTCTAAA,-0.107 ± 0.062
23,CTGAAGTC,-0.284 ± 0.052
24,CAAGAACA,-0.0231 ± 0.067

row,Sequence,PBM E-score of 8-mer
1,ATCTCCGC,0.0734 ± 0.0098
2,GGTATGTA,-0.134 ± 0.079
3,CCACTTGC,0.192 ± 0.049
4,ACCCATCT,-0.0615 ± 0.0012
5,ACGAGGGA,-0.0881 ± 0.03
6,CGCAAAGC,-0.0146 ± 0.083
7,CTCCGAAA,-0.0368 ± 0.022
8,GAGATGGA,-0.0189 ± 0.069
9,AAATGAAA,-0.0939 ± 0.12
10,AGGCTTAA,-0.131 ± 0.014
11,CGTCGGAA,-0.0803 ± 0.018
12,CGACTCGA,0.138 ± 0.032
13,GACTGTGA,0.279 ± 0.0029
14,AGCCCATA,-0.157 ± 0.0018
15,CTAGATGC,-0.125 ± 0.038
16,AGGATTCC,-0.273 ± 0.054
17,GGCCGCCA,0.0406 ± 0.0027
18,CCATCTCC,-0.0172 ± 0.096
19,AGCTCTTA,-0.223 ± 0.03
20,AGGAACCT,-0.154 ± 0.021
21,ATGTTATA,-0.0933 ± 0.013
22,ATAGGCAA,-0.214 ± 0.01
